Consider 1 molecule from PubChem BioAssay (NCI).

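Results reflect a 48-hour exposure of cells in 96-well plates to compound at five concentrations. Here, GI50 denotes the concentration required for 50% inhibition of growth. Definition used: TGI = concentration required for complete inhibition of growth.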

This test deals with NCI-H322M lung. Kind of test: NCI-60 cell line screen, 48 h.

As for `CCCCNNC(=O)c1ccc(-c2cccc(F)c2F)cc1`, the GI50 was 2.77 µM and the TGI amounted to 84.1 µM.
